The results in this text go back to patent US20260098078A1 (KEROS THERAPEUTICS, published 2026).

One may read the Kd as the free concentration of one partner at which half of the binding sites on the other are occupied at equilibrium, for simple one-to-one binding. A lower Kd goes with a tighter complex.

The target in experiment [1] is T1, Activin A (UniProt P08476 311-426).
T1 sequence (looked up): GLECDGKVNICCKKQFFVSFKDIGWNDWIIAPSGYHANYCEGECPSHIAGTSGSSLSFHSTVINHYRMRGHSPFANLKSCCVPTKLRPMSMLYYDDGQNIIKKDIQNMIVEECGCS
In words: cell-based or functional assay.

For experiment [2], the target named is T2, Activin B (UniProt P09529 293-407).
T2 sequence (looked up): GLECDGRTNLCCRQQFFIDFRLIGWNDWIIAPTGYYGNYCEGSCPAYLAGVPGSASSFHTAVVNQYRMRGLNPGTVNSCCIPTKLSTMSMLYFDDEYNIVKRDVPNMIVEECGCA
The experiment is described as follows: cell-based or functional assay.

Experiment [3] deals with T3, growth differentiation factor 11 (GDF-11) (UniProt O95390 299-407).
T3 sequence (looked up): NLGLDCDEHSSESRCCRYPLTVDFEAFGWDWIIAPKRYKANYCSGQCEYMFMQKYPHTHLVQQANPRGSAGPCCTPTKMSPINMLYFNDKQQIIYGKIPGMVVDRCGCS
In words: cell-based or functional assay.

The target in experiment [4] is T4, BMP-9 (UniProt Q9UK05 320-429).
T4 sequence (looked up): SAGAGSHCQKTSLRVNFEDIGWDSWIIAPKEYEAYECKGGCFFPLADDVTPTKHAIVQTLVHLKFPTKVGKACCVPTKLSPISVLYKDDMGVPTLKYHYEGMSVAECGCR
In words: cell-based or functional assay.

Experiment [5] has as its target T5, BMP-10 (UniProt O95393 317-424).
T5 sequence (looked up): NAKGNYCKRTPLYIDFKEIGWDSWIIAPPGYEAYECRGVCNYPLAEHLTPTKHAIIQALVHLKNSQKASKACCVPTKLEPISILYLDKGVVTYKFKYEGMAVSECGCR
The experiment is described as follows: cell-based or functional assay.

The target in experiment [6] is T1, Activin A. The experiment is described as follows: SPR (Biacore 3000), Fc fusion captured by anti-human IgG, ligand injected. As to the method:
(§1) The GE Biacore 3000 was used to measure the kinetics of the interactions between the ActRII- and chimera-Fc proteins and Activin A/Activin B/growth differentiation factor 11 (GDF-11)/BMP-9/BMP-10. Anti-human capture antibody was immobilized on all four flow cells of a CM4 or CM5 chip using the reagents and protocol in the Biacore Human Antibody Capture Kit (GE Life Sciences). Briefly, anti-human IgG was diluted to 25 μg/mL in immobilization buffer. The carboxylated surface of the sensor was activated by injecting a mixture of EDC and NHS. The anti-human IgG was injected into the activated sensor chip flow cells at 10 mL/min for a total of 7 minutes until the chip had reached an immobilization level of 9000 response units (RU). Ethanolamine was injected to deactivate the sensor surfaces. Flow cell 1 was left empty and served as a reference cell to measure and subtract any nonspecific binding. The ActRII- and chimera-Fc proteins were captured in flow cells 2-4 to a maximum analyte binding response of 100 resonance units. This was done by injecting between 5-10 mL of the ActRII- and chimera-FC proteins into the flow cells at a concentration of 2 μg/mL until 200 RU. Each ligand was run in a duplicate concentration series. The data was analyzed using Scrubber2 by BioLogic Software to calculate the KD of each interaction (Table 6).

Experiment [7] has as its target T2, Activin B. The experiment is described as above. As to the method: as §1
In experiment [8] the target is T3, growth differentiation factor 11 …. The experiment is described as above. The method, then: as §1
The target of experiment [9] is T4, BMP-9. The experiment is described as above. As to the method:
as §1

Experiment [10] has as its target T5, BMP-10. The description is as above. As to the method:
as §1

B1: ActRIIB-Fc (SEQ ID NO: 106) (Fc fusion)
chain: GRGEAETRECIYYNANWELERTNQSGLERCEGEQDKRLHCYASWRNSSGTIELVKKGCWLDDFNCYDRQECVATEENPQVYFCCCEGNFCNERFTHLPEAGGPEVTYEPPPTAPTGGG[in this place human IgG1 Fc]
Regarding B1, the “IC50, inhibition of SBE-Luciferase reporter response (HEK293)” value (“IC50, inhibition … (HEK293)” for short) with Activin A [1] was determined as 0.065 µg/mL; with Activin B [2], 0.231 µg/mL; in [3], 0.138 µg/mL. The figures for the “IC50, inhibition of BRE-Luciferase reporter response (C2C12)” value (“IC50, inhibition … (C2C12)” below) with BMP-9 [4] and with BMP-10 [5] were 0.2 µg/mL and 0.0178 µg/mL, respectively. The equilibrium dissociation constant (Kd) with Activin A [6] is 63 pM; in the experiment with Activin B [7], 23 pM; in experiment [8], 115 pM; with BMP-9 [9], 278 pM; with BMP-10 [10], 67 pM.

B2: Chimera 1-Fc (SEQ ID NO: 107) (Fc fusion)
chain: GAILGRAETRECIYYNANWELERTNQSGLERCEGEQDKRLHCYASWRNSSGTIEIVKQGCWLDDINCYDRTDCVATEENPQVYFCCCEGNMCNEKFSYFPEMEVTQPTSGGG[in this place human IgG1 Fc]
In the case of B2, the “IC50, inhibition … (HEK293)” value with Activin A [1] was 0.0692 µg/mL; with Activin B [2] it was 0.072 µg/mL; in experiment [3], 0.0372 µg/mL. The “IC50, inhibition … (C2C12)” value with BMP-9 [4] worked out at 27.2 µg/mL; with BMP-10 [5], 0.0116 µg/mL. The Kd with Activin A [6] is 52 pM; in the experiment with Activin B [7], 51 pM; in experiment [8] it was 9 pM; with BMP-9 [9], 1800 pM; with BMP-10 [10] it was 37 pM.

B3: Chimera 1/2-Fc (SEQ ID NO: 215) (Fc fusion)
chain: GAILGRAETRECIYYNANWELERTNQSGLERCEGEQDKRLHCYASWRNSSGTIEIVKQGCWLDDFNCYDRTDCVEKKDSPQVYFCCCEGNMCNEKFSYFPEMEVTQPTSGGG[in this place human IgG1 Fc]
Regarding B3, the “IC50, inhibition … (HEK293)” value in the experiment with Activin B [2] turned out to be 0.089 µg/mL. Further, in the experiment with BMP-9 [4], the “IC50, inhibition … (C2C12)” value stood at 7.6 µg/mL.

B4: Chimera 1/2b-Fc (SEQ ID NO: 216) (Fc fusion)
chain: GAILGRSETQECIYYNANWELERTNQSGLERCEGEQDKRLHCYASWRNSSGTIEIVKQGCWLDDFNCYDRTDCVEKKDSPQVYFCCCEGNMCNEKFSYFPEMEVTQPTSGGG[in this place human IgG1 Fc]
notes: also called Chimera ½b-Fc
In the case of B4, the “IC50, inhibition … (HEK293)” value in the experiment with Activin A [1] is 0.061 µg/mL; with Activin B [2], 0.15 µg/mL; in [3] it was 0.038 µg/mL. In the experiment with BMP-9 [4], the “IC50, inhibition … (C2C12)” value is 3.2 µg/mL. The Kd was 17 pM with Activin A [6], less than 2 pM in the experiment with Activin B [7], 4 pM in [8] and 820 pM in the experiment with BMP-9 [9].

B5: Chimera 2 I65F E81Q-Fc (SEQ ID NO: 110) (Fc fusion)
chain: GRGEAETRECIYYNANWELERTNQSGLERCEGEQDKRLHCYASWRNSSGTIEIVKQGCWLDDFNCYDRTDCVEKKDSPQVYFCCCEGNMCNEKFSYFPEMEVTQPTSGGG[in this place human IgG1 Fc]
notes: also called Chimera 2 165F E81Q-Fc
Turning to B5, the results for the “IC50, inhibition … (HEK293)” value (in the experiment with Activin A [1]; in the experiment with Activin B [2]; in [3]) were 0.104 µg/mL, 0.03 µg/mL and 0.118 µg/mL, respectively. Further, the “IC50, inhibition … (C2C12)” value with BMP-9 [4] was 5 µg/mL; with BMP-10 [5], 0.0109 µg/mL. Further, the equilibrium dissociation constant (Kd) with Activin A [6] was determined as 106 pM; with Activin B [7], 15 pM; in experiment [8], 15 pM; with BMP-9 [9], 704 pM; in the experiment with BMP-10 [10] it was 31 pM.

B6: Chimera 2 D37R I65F E81Q-Fc (SEQ ID NO: 263) (Fc fusion)
chain: GRGEAETRECIYYNANWELERTNQSGLERCEGEQRKRLHCYASWRNSSGTIEIVKQGCWLDDFNCYDRTDCVEKKDSPQVYFCCCEGNMCNEKFSYFPEMEVTQPTSGGG[in this place human IgG1 Fc]
For B6, the “IC50, inhibition … (HEK293)” value with Activin B [2] is greater than 0.5 µg/mL. Further, the “IC50, inhibition … (C2C12)” value in the experiment with BMP-9 [4] was greater than 50 µg/mL.

B7: Chimera 5-Fc (SEQ ID NO: 218) (Fc fusion)
chain: GRGEAETRECIYYNANWELERTNQSGLERCEGEQDKRLHCYASWRNSSGTIELVKKGCWLDDFNCYDRQECVATKENPQVYFCCCEGNMCNEKFSYFPEMEVTQPTSGGG[in this place human IgG1 Fc]
For the molecule B7, the “IC50, inhibition … (HEK293)” value with Activin B [2] is 0.18 µg/mL. The “IC50, inhibition … (C2C12)” value with BMP-9 [4] was greater than 50 µg/mL.

B8: Chimera 2 I65E N66T E81Q-Fc (SEQ ID NO: 214) (Fc fusion)
chain: GRGEAETRECIYYNANWELERTNQSGLERCEGEQDKRLHCYASWRNSSGTIEIVKQGCWLDDETCYDRTDCVEKKDSPQVYFCCCEGNMCNEKFSYFPEMEVTQPTSGGG[in this place human IgG1 Fc]
Take B8: the “IC50, inhibition … (HEK293)” value with Activin B [2] is 0.079 µg/mL. Besides, the “IC50, inhibition … (C2C12)” value in the experiment with BMP-9 [4] was greater than 50 µg/mL.

B9: Chimera 4-Fc (SEQ ID NO: 217) (Fc fusion)
chain: GRGEAETRECIYYNANWELERTNQSGLERCEGEQDKRLHCYASWRNSSGTIELVKKGCWLDDFNCYDRQECVATKDSPEVYFCCCEGNMCNEKFSYFPEMEVTQPTSGGG[in this place human IgG1 Fc]
B9: the “IC50, inhibition … (HEK293)” value with Activin A [1] came out at 0.17 µg/mL; with Activin B [2] it was 0.094 µg/mL; in experiment [3] it was 0.041 µg/mL. The “IC50, inhibition … (C2C12)” value with BMP-9 [4] was determined as 1.3 µg/mL. Further, the Kd with Activin A [6] is 48 pM; with Activin B [7], less than 2 pM; in experiment [8] it was 1.8 pM; with BMP-9 [9] it was 200 pM.

B10: Chimera 3-Fc (SEQ ID NO: 213) (Fc fusion)
chain: GRGEAETRECIYYNANWELERTNQSGLERCEGEQDKRRHCFATWKNISGSIEIVKQGCWLDDFNCYDRTDCVEKKDSPQVYFCCCEGNMCNEKFSYFPEMEVTQPTSGGG[in this place human IgG1 Fc]
Regarding B10, the “IC50, inhibition … (HEK293)” value in the experiment with Activin A [1] came to 0.091 µg/mL; with Activin B [2] it was 0.074 µg/mL; in experiment [3], 0.034 µg/mL. Moreover, in the experiment with BMP-9 [4], the “IC50, inhibition … (C2C12)” value came out at 5.8 µg/mL. Also, the Kd with Activin A [6] is 56 pM; with Activin B [7] it was less than 2 pM; in experiment [8], 13 pM; with BMP-9 [9], 1600 pM.

B11: ActRIIA-Fc (SEQ ID NO: 105) (Fc fusion)
chain: GAILGRSETQECLFFNANWEKDRTNQTGVEPCYGDKDKRRHCFATWKNISGSIEIVKQGCWLDDINCYDRTDCVEKKDSPEVYFCCCEGNMCNEKFSYFPEMEVTQPTSGGG[in this place human IgG1 Fc]
notes: Expressed in HEK293 or CHO cells, purified on protein A
B11: the “IC50, inhibition … (HEK293)” value with Activin A [1] amounted to 0.39 µg/mL; with Activin B [2], 0.214 µg/mL; in [3], 0.39 µg/mL. Also, the “IC50, inhibition … (C2C12)” value with BMP-9 [4] amounted to 215 µg/mL; with BMP-10 [5], 0.749 µg/mL. In addition, the Kd with Activin A [6] came to 1000 pM; with Activin B [7] it was 373 pM; in [8], 81 pM; in the experiment with BMP-9 [9], 25000 pM; with BMP-10 [10], 115 pM.
